# Hit rate of the full screen: of about 310,000 compounds, about 11,000 (3.5%) were called active. Inconclusive means that the source gave no clear call. Such entries were picked first, then a sample of the others. Calls come from the whole dose curve; as a rule, active = well fitted inhibition curve with a large enough effect; inconclusive = small, poorly fitted or top-dose-only effect, or effect the other way; inactive = flat fitted curve, though single readings scatter. No potency is given beside an inconclusive call; the fits are too rough.
# Experiment: VP16 counterscreen qHTS for inhibitors of ROR gamma transcriptional activity;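 note: Gal4-VP16 expression switched on by copper sulfate through the metallothionein promoter; nearly all actives have a fitted effect of over 50% in size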
# Settings: Drosophila S2 Gal4-VP16 UAS-luciferase, luminescence, 20 h; activity, negative = inhibition: at 53.6 µM (top of the series)
# % is set by controls: 0 for no effect and ±100 for the full control effect; potency is the fitted concentration of half-maximal effect; tags give direction and shape of the fitted curve.
SMILES,"activity, negative = inhibition",Potency
O=C(Nc1cc(C(F)(F)F)ccc1N1CCOCC1)c1ccccc1F,inactive: 0.875%,
Cc1nnsc1NC(=O)OCc1ccc(C(C)(C)C)cc1,,"inconclusive [inhibitor, single point]"
O=C(c1ccco1)N1CCC2(CC1)CN(c1ccc(-c3ccccc3)cc1)C2,,"inconclusive [inhibitor, single point]"
Cc1ccccc1CC1(CO)CCCN(Cc2ccc(C#CC(C)(C)O)cc2)C1 (centres undefined),,"inconclusive [inhibitor, single point]"
Cc1ccnc(N2C(=O)c3ccccc3C2Nc2cccc(C)c2C)c1 (centres undefined),inactive: -7.04%,
CCO[C@H]1OC(C(=O)NCc2ccccc2)=C[C@@H](c2ccc(Br)cc2)[C@@H]1CCCO,inactive: -5.04%,
O=C(NC(=S)Nc1ccc(Br)cn1)c1cncc(Br)c1,inactive: -3.58%,
COc1ccc(C(=O)COC(=O)C(C(C)C)N2C(=O)C3C4C=CC(C4)C3C2=O)cc1 (centres undefined),,"inconclusive [inhibitor, single point]"
CNC(=O)c1c(NC(=O)c2nc3ccccc3s2)sc2c1CCC2,,active: 8.91 µM
COc1ccc(/C=N/NC(=S)NCC2CCCO2)cc1 (centres undefined),,active: 11.2 µM
CNCCCN1c2ccccc2CCc2ccccc21,,inactive
O=C(CNc1cc(S(=O)(=O)N2CCCC2)ccc1OCC(F)(F)F)Nc1ccc(SC(F)F)cc1,,"inconclusive [inhibitor, full curve, poor fit]"
COC(=O)c1c(C)oc2ccc(N(C(C)=O)S(=O)(=O)c3ccccc3)cc12,,"inconclusive [inhibitor, single point]"
Cc1csc(C(=O)O)c1-c1c(C)csc1C(=O)O,inactive: -8.2%,
O=[N+]([O-])c1ccc(-[n+]2nc(-c3ccccc3)nn2-c2ccccc2)cc1,,"inconclusive [inhibitor, single point]"
COc1cc(/C=N/Nc2nc(Nc3ccccc3)nc(-n3nc(C)cc3C)n2)cc(OC)c1OC,,active: 6.31 µM
Cc1ccc(C(=O)Nc2cc(C)c(OCC(=O)N3CCOCC3)c(C)c2)cc1,,active: 10 µM
Cc1ccc(CN2C(=O)N/C(=C/c3cc(C)n(-c4ccccn4)c3C)C2=O)cc1,,"inconclusive [activator, single point]"
N#CC1=C(c2ccccc2)/C(=C/c2ccccc2)OC1=O,,active: 2.24 µM
Cc1cc(C(=O)N2CCCC(N3CCN(c4cccc(C(F)(F)F)c4)CC3)C2)c(C)o1 (centres undefined),inactive: -5.47%,
O=S(=O)(c1ccc(Cl)cc1)c1snnc1-c1ccccc1,,"inconclusive [inhibitor, single point]"
CCOC(=O)C1(Cc2cccc(OC)c2)CCCN(C(=O)c2cc(C)on2)C1 (centres undefined),,"inconclusive [activator, partial curve]"
Cc1ccccc1OCCC(=O)N(Cc1ccccc1)c1c(N)n(Cc2ccccc2)c(=O)[nH]c1=O,inactive: -12.5%,
Cn1cc(CNCc2cnc3ccccn23)c(-c2ccc(Oc3ccccc3)cc2)n1,inactive: -0.429%,
COc1cccc(-c2nnn(CC(=O)Nc3cc(OC)c(NC(=O)c4ccco4)cc3OC)n2)c1,,"inconclusive [inhibitor, single point]"
COc1cc(NS(=O)(=O)c2ccc(NC(C)=O)cc2)cc(OC)c1,,active: 20 µM
Fc1cccc(NC(=S)Nc2ccc(Br)cc2)c1,,"inconclusive [inhibitor, single point]"

SMILES,"activity, negative = inhibition",Potency
Fc1ccc(NC(=S)Nc2cccc3ccccc23)cc1F,,"inconclusive [inhibitor, single point]"
Cc1cccc(-n2cc(-c3ccccc3)c3c(NN4CCOCC4)ncnc32)c1,,"inconclusive [inhibitor, single point]"
COc1ccc(-c2noc(CCC(=O)NCCc3ccccc3)n2)cc1OC,inactive: -14.5%,
COc1ccc(C2NC(=O)C(C#N)=C(S)N2c2cccc(C)c2)cc1OC (centres undefined),inactive: -22.8%,
O=c1cc(-c2ccccc2Cl)oc2c(NS(=O)(=O)c3cc(Cl)cc(Cl)c3O)ccc(O)c12,,active: 5.01 µM
CSC1=NS(=O)(=O)c2c(C)nn(C)c2S1,,"inconclusive [inhibitor, single point]"
COC(=O)c1c(NC(=O)c2ccccc2C(=O)O)sc2c1CCC2,inactive: 5.18%,
Cc1n[nH]c(C)c1S(=O)(=O)N1CCCC(C(=O)NCc2ccc(F)cc2)C1 (centres undefined),,"inconclusive [inhibitor, single point]"
c1ccn2cc(CSc3nnc4ccccn34)nc2c1,,"inconclusive [inhibitor, single point]"
COc1ccc(-c2cc3ccccc3oc2=O)cc1NC(=O)c1ccc(Br)o1,,"inconclusive [inhibitor, partial curve, poor fit]"
Cc1ccccc1C(=O)NC1CCN(Cc2nnnn2C2CCCC2)CC1,inactive: -9.87%,
C/C(=N\NC(=O)c1ccccc1)c1ccccc1Br,,active: 6.31 µM
O=C(CSc1nnc(-c2ccccc2Br)o1)Nc1nncs1,,"inconclusive [inhibitor, partial curve]"
O=C1C(Cl)=C(Nc2ccc3cn[nH]c3c2)C(=O)c2ccccc21,,"inconclusive [inhibitor, single point]"
Nc1ccc(Oc2ccc(Cl)cc2)cc1,inactive: 3.52%,
O=C(/C=C\Nc1ccc2c(c1)OCO2)c1cccs1,,"inconclusive [inhibitor, single point]"
CCS(=O)(=O)NCC(c1cccnc1)N1CCN(c2ccc(OC)cc2)CC1 (centres undefined),inactive: -4.96%,
Cc1nnc(N/N=C/c2ccccc2F)n1N,,"inconclusive [inhibitor, single point]"
COC(=O)c1ccccc1NC(=O)c1sc(N)nc1C,inactive: -4.75%,
O=C(O)/C(=C\c1cccs1)c1ccc(F)cc1,,"inconclusive [activator, single point]"
O=C(Oc1ccc(O)cc1)C12CC3CC(CC(C3)C1)C2,,"inconclusive [inhibitor, single point]"
Nc1ccc(/C=C/c2ccc(N)cc2S(=O)(=O)O)c(S(=O)(=O)O)c1,inactive: -11.5%,
COc1ccc(-c2cc(-c3nnc(COC(=O)C4CC4)o3)c3ccccc3n2)cc1OC,inactive: -16%,
Cc1ccc(NC(=O)c2nn(C34CC5CC(CC(C5)C3)C4)cc2[N+](=O)[O-])cc1,,"inconclusive [inhibitor, single point]"
CN(CC(=O)N1CCN(c2ccc(F)cc2)CC1)S(=O)(=O)c1ccc(F)cc1,,"inconclusive [inhibitor, partial curve, poor fit]"
O=C(Nc1nnc(C2=COCCO2)o1)c1ccc(S(=O)(=O)N2CCOCC2)cc1,inactive: -2.1%,
Cc1cc(OC(F)F)ccc1NC(=S)NCCc1ccccc1,,active: 10 µM

SMILES,"activity, negative = inhibition",Potency
O=C(Nc1ccccc1)Nc1nc2ccccc2s1,inactive: -14%,
CCc1ccc(C(=O)COC(=O)c2n[nH]c3ccccc23)cc1,,"inconclusive [inhibitor, single point]"
O=C(c1ccc(Cl)c(S(=O)(=O)N2CCOCC2)c1)N1CCN(c2ccccc2)CC1,inactive: -9.79%,
CCN(CC)c1ccc(/C=N/NC(=O)Nc2ccccc2)cc1,,"inconclusive [activator, full curve, poor fit]"
O=C1/C(=C/c2ccc(O)cc2)SC(=S)N1CC1CCCO1 (centres undefined),,"inconclusive [inhibitor, single point]"
Cn1c(=O)c2c(nc(CN3CCC(C(N)=O)CC3)n2CCc2ccccc2)n(C)c1=O,inactive: 4.8%,
CN(C)S(=O)(=O)N1CCN(c2ccnc3cc(Cl)ccc23)CC1,inactive: -4.14%,
O=C(Nc1ccccc1F)Nc1cc(Cl)ccc1-n1cncn1,inactive: -5.49%,
Cc1ccc(CC2CC(=O)N(CCc3ccccc3)C2=O)cc1 (centres undefined),,"inconclusive [activator, single point]"
C/C(=C\c1ccccc1)C(=O)NCCN1CCOCC1,inactive: -3.12%,
O=Cc1ccc(-n2nncc2-c2ccc([N+](=O)[O-])cc2)cc1,inactive: -6.01%,
O=C(CN(c1cccc([N+](=O)[O-])c1)S(=O)(=O)c1ccccc1)NCc1ccccc1,,"inconclusive [inhibitor, single point]"
O=C(Oc1cc(=O)oc2c1c(=O)n1c3c(cccc23)CC1)c1ccccc1,,"inconclusive [inhibitor, single point]"
Cc1cc(C)n2ncc(C(=O)Nc3cccc(O)c3)c2n1,,"inconclusive [inhibitor, single point]"
O=C1/C(=C/c2cccs2)Sc2ccccc21,,"inconclusive [activator, single point]"
CCOC(=O)CNC(=O)C1COc2ccccc2O1 (centres undefined),inactive: 2.33%,
O=C(Nc1ccccc1)N1CCC2(CC1)CCN(C(=O)c1ccco1)CC2,,"inconclusive [activator, full curve]"
CCCCc1nnc(NC(=O)CCS(=O)(=O)Cc2ccccc2)s1,inactive: -5.47%,
CCN(CC)c1ccc2c(c1)oc(=O)c1c(Cl)cc(=O)oc12,,"inconclusive [inhibitor, single point]"
Cc1nc2cnc(Oc3cccc(Cl)c3)nc2n(CCc2ccccc2)c1=O,inactive: 2.41%,
O=C(CSc1nnc(-c2c[nH]c3ccccc23)o1)N1c2ccccc2CCc2ccccc21,inactive: 6.01%,
O=C(CSc1c2c(nc3cc(Cl)ccc13)CCCC2)NCCN1CCOCC1,inactive: 6.43%,
CCC(C)c1ccc(NC(=S)NCc2ccccc2OC)cc1 (centres undefined),,active: 8.91 µM
Cc1cc(NC(=S)Nc2ccc(C)c(Cl)c2)n[nH]1,,active: 1 µM
CCn1c(SCC(=O)N/N=C/C=C/c2ccccc2[N+](=O)[O-])nnc1-c1ccc(Cl)cc1,,"inconclusive [inhibitor, partial curve]"

# Reference: PubChem BioAssay AID2546 (National Center for Advancing Translational Sciences (NCATS), 2010)
